In assay [1] the target is T1, N-terminally HA-tagged OTUD1 wild type (human) (UniProt Q5VV17).
T1 sequence: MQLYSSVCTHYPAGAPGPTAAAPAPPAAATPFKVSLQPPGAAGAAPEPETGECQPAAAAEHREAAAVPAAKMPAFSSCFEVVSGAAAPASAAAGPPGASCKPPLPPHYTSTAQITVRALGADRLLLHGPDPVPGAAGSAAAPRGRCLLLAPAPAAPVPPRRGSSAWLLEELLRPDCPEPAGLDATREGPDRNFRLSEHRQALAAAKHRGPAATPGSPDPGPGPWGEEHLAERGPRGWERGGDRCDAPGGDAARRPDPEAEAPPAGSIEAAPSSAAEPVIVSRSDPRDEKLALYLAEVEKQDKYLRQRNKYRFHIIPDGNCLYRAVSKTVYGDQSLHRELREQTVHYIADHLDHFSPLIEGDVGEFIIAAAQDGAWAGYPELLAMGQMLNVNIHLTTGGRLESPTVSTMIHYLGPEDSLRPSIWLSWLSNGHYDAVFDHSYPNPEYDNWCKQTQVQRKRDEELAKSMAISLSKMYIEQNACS
As to the kind of experiment: co-IP; HEK 293 cells expressing HA-tagged OTUD1 and Flag-tagged KEAP1 or PRDX4; lysis in 20 mM TRIS pH 7.5, 150 mM NaCl, 0.5% NP40; anti-FLAG M2 or anti-HA agarose, 2 h at 4 °C; elution with FLAG or HA peptide; western blotting. In general terms: A western blot detects proteins with antibodies after separation by electrophoresis.

By UniProt entry, the sequences of proteins in these tests, tags left out.
UniProt Q14145: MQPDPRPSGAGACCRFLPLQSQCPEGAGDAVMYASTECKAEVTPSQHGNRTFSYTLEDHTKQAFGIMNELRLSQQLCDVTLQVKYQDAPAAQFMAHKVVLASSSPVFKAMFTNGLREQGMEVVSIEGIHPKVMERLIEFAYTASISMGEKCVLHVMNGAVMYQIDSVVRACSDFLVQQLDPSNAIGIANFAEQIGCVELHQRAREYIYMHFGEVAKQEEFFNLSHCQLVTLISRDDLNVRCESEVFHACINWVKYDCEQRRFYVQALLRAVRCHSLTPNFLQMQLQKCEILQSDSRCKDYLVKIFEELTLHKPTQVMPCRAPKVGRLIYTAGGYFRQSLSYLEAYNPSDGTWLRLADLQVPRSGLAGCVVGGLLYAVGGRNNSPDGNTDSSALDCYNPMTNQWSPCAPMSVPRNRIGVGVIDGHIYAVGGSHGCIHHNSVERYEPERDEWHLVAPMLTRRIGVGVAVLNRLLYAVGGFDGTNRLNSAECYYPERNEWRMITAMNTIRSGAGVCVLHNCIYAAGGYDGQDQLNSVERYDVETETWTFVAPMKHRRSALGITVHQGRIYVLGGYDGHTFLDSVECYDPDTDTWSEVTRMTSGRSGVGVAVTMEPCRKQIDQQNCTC

In assay [2] the target is T2, HA-tagged OTUD1 ΔETGE mutant (human) (UniProt Q5VV17).
T2 sequence: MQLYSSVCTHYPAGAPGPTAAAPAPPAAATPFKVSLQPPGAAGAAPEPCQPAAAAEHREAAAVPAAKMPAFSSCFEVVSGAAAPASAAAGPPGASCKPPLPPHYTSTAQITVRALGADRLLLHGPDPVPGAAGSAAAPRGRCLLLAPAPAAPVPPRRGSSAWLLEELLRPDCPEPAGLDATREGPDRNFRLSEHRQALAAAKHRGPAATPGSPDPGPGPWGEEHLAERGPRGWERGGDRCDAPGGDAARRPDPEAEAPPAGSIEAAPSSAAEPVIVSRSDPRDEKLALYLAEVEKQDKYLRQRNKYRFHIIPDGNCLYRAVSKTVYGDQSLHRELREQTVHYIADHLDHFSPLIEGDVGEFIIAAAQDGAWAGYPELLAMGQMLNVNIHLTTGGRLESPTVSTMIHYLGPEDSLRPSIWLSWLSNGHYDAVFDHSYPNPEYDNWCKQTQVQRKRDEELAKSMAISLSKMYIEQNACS
The description is as above.

For assay [3], the target named is T3, Endogenous OTUD1 (human (endogenous in RPMI8226)) (UniProt Q5VV17).
T3 sequence: T1 sequence
As to the kind of experiment: co-IP; endogenous proteins from RPMI8226 lysate (20 mM TRIS pH 7.5, 150 mM NaCl, 0.5% NP40); anti-OTUD1 rabbit polyclonal sera overnight at 4 °C, Protein A/G PLUS-agarose; western blotting.

The target of assay [4] is T3, Endogenous OTUD1 (human (endogenous in RPMI8226)). The assay is described as above. The source holds these as a separate data set.
The target in assay [5] is T1, N-terminally HA-tagged OTUD1 wild type (human). As to the kind of experiment: co-IP; HEK 293 cells expressing HA-tagged OTUD1 and Flag-tagged KEAP1 or PRDX4; lysis in 20 mM TRIS pH 7.5, 150 mM NaCl, 0.5% NP40; anti-FLAG M2 or anti-HA agarose, 2 h at 4 °C; elution with FLAG or HA peptide; western blotting. This is another data set of the same source.

Read-outs that look alike come from different tables or passages of the source. Results are given in words; binding and its absence hold for the method and conditions named. Binding seen in cells or lysates may run through a third protein. Some results given as binding are weak or reduced against the parent protein; the word gives no strength. For some assays here: Sequences can lack the tags named with a protein.

“Flag-tagged KEAP1 (from UniProt Q14145 1-624)”: the binding entry is “binds” in assay [1] and “no binding” in assay [2].
Turning to “endogenous KEAP1 (from UniProt Q14145 1-624)”, the binding result in assay [3] was “binds”.

B1: endogenous PRDX4 (protein, UniProt Q13162 38-271)
chain: WETEERPRTREEECHFYAGGQVYPGEASRVSVADHSLHLSKAKISKPAPYWEGTAVIDGEFKELKLTDYRGKYLVFFFYPLDFTFVCPTEIIAFGDRLEEFRSINTEVVACSVDSQFTHLAWINTPRRQGGLGPIRIPLLSDLTHQISKDYGVYLEDSGHTLRGLFIIDDKGILRQITLNDLPVGRSVDETLRLVQAFQYTDKHGEVCPAGWKPGSETIIPDPAGKLKYFDKLN
Consider B1, for which the binding entry in assay [4] is “binds”.

B2: ER-localization sequence deficient (Δ1-38) Flag-tagged PRDX4 (domain or fragment, UniProt Q13162 39-271)
chain: ETEERPRTREEECHFYAGGQVYPGEASRVSVADHSLHLSKAKISKPAPYWEGTAVIDGEFKELKLTDYRGKYLVFFFYPLDFTFVCPTEIIAFGDRLEEFRSINTEVVACSVDSQFTHLAWINTPRRQGGLGPIRIPLLSDLTHQISKDYGVYLEDSGHTLRGLFIIDDKGILRQITLNDLPVGRSVDETLRLVQAFQYTDKHGEVCPAGWKPGSETIIPDPAGKLKYFDKLN
Consider B2, for which, in assay [5], the binding result is “no binding”.

Source of the values: article PMC9649770.
